# Measured values: PubChem BioAssay AID1240 (Sanford-Burnham Center for Chemical Genomics, 2008)
# About 800 (1.6%) of roughly 50,000 compounds showed an effect of 50% or more. The list shows a part of the results.
# Molecular target: Bcl-2-like protein 10 (Homo sapiens) (UniProt Q9HD36)
# Experiment: Phenotype converters, Bcl-B/TR3 peptide binding displacement, primary biochemical FP (AID 1240);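 also: 0% = Bcl-B with tracer peptide and DMSO and 100% = tracer peptide lacking Bcl-B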
# Conditions: GST-Bcl-B / FITC-TR3 peptide fluorescence polarization; stronger effect = higher value; compound at 3.75 mg/L
# Sequence of UniProt Q9HD36 (Q9HD36 whole entry, looked up): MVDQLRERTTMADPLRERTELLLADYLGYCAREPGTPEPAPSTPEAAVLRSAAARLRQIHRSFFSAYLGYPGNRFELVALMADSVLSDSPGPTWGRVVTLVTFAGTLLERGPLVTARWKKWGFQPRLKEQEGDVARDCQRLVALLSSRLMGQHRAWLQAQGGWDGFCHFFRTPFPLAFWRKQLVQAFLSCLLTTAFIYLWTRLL
row,SMILES,displacement [%]
1,Cc1cccn2c(=O)c(C=O)c(N3CCC(C)CC3)nc12,17
2,COc1ccc(C(=O)Nc2ccc(N(C)C)cc2)cc1[N+](=O)[O-],2.3
3,O=[N+]([O-])c1ccc(N2CCOCC2)cc1N1CCN(CCO)CC1,-8.1
4,Cc1nn(-c2ccccc2)c2sc(C(=O)N/N=C/c3cc4c(cc3[N+](=O)[O-])OCO4)cc12,-1.4
5,c1ccc(C(=NCCN=C(c2ccccc2)c2ccccc2)c2ccccc2)cc1,-4.8
6,CCOC(=O)c1c(NC(=O)/C=C/c2ccc(OC)cc2)sc2c1CCCC2,1.3
7,Cc1ccc(C(=O)CC2(O)C(=O)N(C)c3ccccc32)cc1 (stereo not given),9.6
8,CCOP(C)(=O)C(CC(=O)OC)C(=O)OC (stereo not given),-7
9,CCOC(=O)c1c(CN(C)C)n(-c2ccccc2)c2ccc(OC(C)=O)cc12,1.5
10,O=C(Nc1ccc(Cl)cc1)Nc1nnc(-c2cccc(F)c2)s1,8
11,N#Cc1cc2c(nc1SCC(=O)Nc1nccs1)CCCCC2,-4.1
12,COc1cccc(N(CC(=O)Nc2ccc(Cl)cc2)S(=O)(=O)c2ccccc2)c1,13.7
13,COc1ccc(N2C(=O)CC(Nc3ccc(Cl)cc3)C2=O)cc1 (stereo not given),-7.2
14,C=CCc1cccc(/C=N/NC(=O)c2cc(-c3ccc4ccccc4c3)n[nH]2)c1O,-13.5
15,CC(C)CC(=O)N1CCN(C(=O)c2ccc(-c3ccccc3)cc2)CC1,13.7
16,CN(C)c1ccc(/C=N/Nc2nnc3c(n2)[nH]c2ccc(Br)cc23)cc1,-7.2
17,Cc1cc(C)cc(OCCCc2c(C)n[nH]c2C)c1,-8
18,COc1ccc(NC(=O)CN(c2ccc(C)cc2)S(=O)(=O)c2ccc(OC)c(OC)c2)c(OC)c1,18.2
19,O=C(O)C1(P(=O)(c2ccccc2)c2ccccc2)CC1,-2.4
20,O=C(O)/C=C/C(=O)Nc1ccc2c(c1)OCO2,5.9
21,COc1ccc(C(=O)NN2CCOCC2)cc1OC,-3.1
22,O=C(/C=C/c1ccco1)Nc1sc2c(c1C(=O)O)CCC2,-3.2
23,CN(C)c1ccc(/C=C2\SC(=Nc3ccc(O)cc3)NC2=O)cc1,50.9
24,COc1ccc(/C(N)=N/OC(=O)c2ccccc2Cl)cc1,-7.4
25,C=CCNC(=S)N/N=C/c1cccc([N+](=O)[O-])c1,-12.7
26,Cc1cc(=O)oc2c1c(C)nn2-c1cccc(C(F)(F)F)c1,8.5
27,O=C(/C=C/c1cccs1)NCCN1CCOCC1,12.9
28,COc1ccc(/C=C/C(=O)Oc2ccc(C)c(C)c2)cc1OC,-4.2

row,SMILES,displacement [%]
1,O=C(Nc1cccc(-c2nc3ccccc3o2)c1)c1ccc(N2C(=O)C3C4C=CC(C4)C3C2=O)cc1 (stereo not given),-1.5
2,COc1ccc(-c2cc(-c3ccccc3)nc(=O)[nH]2)cc1,2.3
3,O=C(/C=C/c1ccccc1Cl)NCc1ccccn1,1.9
4,Cc1c(NC(=O)c2ccc(-c3cccc([N+](=O)[O-])c3)o2)cccc1-c1nc2ccccc2s1,3.7
5,Cc1cc(C)cc(N2C(=O)NC(=O)/C(=C\c3cccc(F)c3)C2=O)c1,2.3
6,CC(=O)CC(=O)Nc1ccc2c(c1)OCCO2,4.1
7,COc1cccc(CN2CCN(C(=O)c3ccccc3)CC2)c1,5.7
8,CC(=O)Nc1c(C)cc(C(C)(C)c2cc(C)c(NC(C)=O)c(C)c2)cc1C,13.9
9,CCCOc1c(I)cc(I)cc1/C=C(/C#N)c1nc2ccc(C)cc2[nH]1,-4.9
10,C/C(=C\c1ccc(I)cc1)C(=O)c1c(C)cc(C)[nH]c1=O,10.8
11,N#C/C(=C\c1ccc(-c2ccccc2[N+](=O)[O-])o1)c1nn(-c2ccccc2)c(N)c1C#N,9.1
12,COc1ccc(CCNC(=O)c2cc(Cl)ccc2OC)cc1,-1.6
13,O=C(CCCN1C(=O)/C(=C\c2cccs2)SC1=S)Nc1nccs1,114
14,CCOC(=O)COc1ccc(/C=N/NC(=O)c2nonc2N)cc1OC,3
15,CCCN1CCC(=NNC(=O)c2cccc(Br)c2)CC1,3.7
16,O=C(Nc1cccnc1)c1cc(-c2ccccc2Cl)nc2ccccc12,-4.9
17,FC(F)(F)c1cc(-c2cccs2)nc2cc(-c3ccccc3)nn12,11
18,CN(C)c1ccc(/C=C2\C(=O)c3cccc([N+](=O)[O-])c3C2=O)cc1,11.9
19,O=C(/C=C/c1cccc([N+](=O)[O-])c1)Nc1ccc(O)c(-c2nc3ccccc3o2)c1,-2.4
20,O=[N+]([O-])c1ccc(Oc2ccc(/C=N/O)cc2)nc1,8.5
21,O=C1c2ccc3c4c(ccc(c24)C(=O)N1CCOc1ccccc1Cl)CC3,15.1
22,O=C(N/N=C/c1ccccn1)c1ccc(O)cc1O,-2.6
23,COc1ccc(CNC(=O)c2c(Cl)cccc2Cl)cc1,-5.7
24,OC(CC#CCN1CCC(c2ccccc2)C1)(c1ccccc1)c1ccccc1 (stereo not given),10.5
25,NC(=O)c1ccc(NC(=O)COc2ccc(Cl)cc2Br)cc1,-6
26,CCOc1ccc(NC(=O)C2C(c3ccccc3)C2(Cl)Cl)cc1 (stereo not given),2.6
27,CCOc1ccc2noc3c2c1C(=O)c1ccccc1-3,123
